Experimental data published in the supplement of paper PMC3334620.
Whole data set: some 33,000 sequences, median “E-score (-0.5 to 0.5)” near -0.017, cut for the highest 2% near 0.3. The list shows a part of the results.

target: T1, Sut1 (UniProt P53032); experiment: PBM E-score (8-mer binding enrichment) (E-score (-0.5 to 0.5)); higher = stronger / more preferred TF binding; most listed sequences are background and not binding sites; conditions: protein concentration: 200 nM; construct: GST-full length
T1 sequence: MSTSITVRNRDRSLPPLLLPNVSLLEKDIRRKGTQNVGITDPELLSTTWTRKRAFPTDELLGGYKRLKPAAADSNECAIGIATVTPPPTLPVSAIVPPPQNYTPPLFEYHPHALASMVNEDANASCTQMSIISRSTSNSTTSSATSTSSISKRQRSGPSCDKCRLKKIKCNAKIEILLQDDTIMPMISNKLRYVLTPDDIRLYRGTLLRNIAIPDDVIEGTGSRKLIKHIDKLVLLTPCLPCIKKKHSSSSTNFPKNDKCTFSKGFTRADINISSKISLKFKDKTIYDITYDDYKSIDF
Method in brief: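 Yeast transcription factors carrying a GST tag, as full-length proteins or DNA-binding domains, were produced by PURExpress in vitro transcription/translation. About 100-200 nM protein was applied to universal all-10-mer Agilent arrays, double-stranded by primer extension on fresh or once-stripped slides. Bound protein was detected with fluorescent anti-GST, and scans were normalised with masliner. The Universal PBM Analysis Suite gave each ungapped eight-base word, pooled with its reverse complement, an E-score, a modified Wilcoxon-Mann-Whitney statistic.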

| Sequence | PBM E-score |
| --- | --- |
| AGCTTTTC | 0.076 |
| AGAGGTCG | -0.0834 |
| CTCGAGTA | -0.0175 |
| AGGTTACG | -0.0332 |
| CTTGTAAC | 0.0858 |
| GGCGCGCA | -0.0973 |
| TCCTGCGA | -0.108 |
| ATGCTTTA | -0.0185 |
| CGGAGGTA | 0.0546 |
| GTCATCGA | -0.126 |
| TCCGTCGA | 0.269 |
| CTCCTCAG | -0.122 |
| CTTCCAGC | -0.209 |
| TCGAAACA | 0.114 |
| ACCACCAG | -0.0837 |
| GCCCTTAC | -0.117 |
| CTATAAGA | 0.0645 |
| GCGGGCAC | -0.0559 |
| ACTCGAGA | -0.063 |
| CAGGGGCC | -0.381 |
| GTAGACAC | 0.0727 |
| ACCGATGC | 0.03 |
| CAAGAGCG | -0.079 |
| CCTGGGGA | -0.333 |
| ATGACTAA | 0.0921 |

| Sequence | PBM E-score |
| --- | --- |
| GAATGCGC | 0.116 |
| CGGTGTGA | -0.00548 |
| ATTGCCAA | -0.0503 |
| ATATGATC | 0.0896 |
| AGAGCGGC | -0.125 |
| GCCAAAGA | 0.0153 |
| GTGAAGCA | -0.123 |
| ACAGGCAA | -0.0187 |
| GACGGGTA | -0.25 |
| CATAGGGC | -0.253 |
| CATTCAGG | -0.122 |
| AATGTGGA | 0.0742 |
| ACCAAGAT | 0.0833 |
| AGTGAAGG | -0.0451 |
| ACCGTATG | -0.0163 |
| CCACCAAA | -0.0079 |
| GGGCCGAC | -0.0906 |
| CCCATTAC | -0.173 |
| GCTGCTAC | -0.223 |
| GATACTGA | -0.0173 |
| CGTTTACA | -0.0405 |
| CCATCTAG | -0.0651 |
| CTTGCTAA | -0.171 |
| ACTCGGCG | 0.0415 |
| AAAACCCT | -0.171 |

| Sequence | PBM E-score |
| --- | --- |
| CCATTCAC | -0.0529 |
| CCGGGGCA | -0.0637 |
| CCATGGGA | -0.219 |
| AGCCCCAT | -0.229 |
| CTTCCGTC | 0.086 |
| CCTGGGTA | -0.206 |
| CATGAGAA | 0.0161 |
| ACCAACCA | -0.0123 |
| CGTCGTTC | 0.132 |
| CAGGGACC | -0.24 |
| AAGAAAGG | 0.0877 |
| AGCTTCAG | -0.191 |
| AGAAAATG | 0.163 |
| GCTGAGCC | -0.251 |
| CATGCGAG | -0.0901 |
| ATCGAAGC | -0.184 |
| ACAGGGAT | -0.154 |
| CACACCGA | 0.013 |
| ACATAACT | 0.108 |
| GGTTGACA | -0.0731 |
| CAGGTAAA | 0.177 |
| CTAGCGAA | -0.211 |
| AGATGAAA | 0.0508 |
| CGGCCTAA | 0.0562 |
| GGCGAGCC | -0.157 |

| Sequence | PBM E-score |
| --- | --- |
| CGGTAACG | -0.0305 |
| CAGACGCA | -0.179 |
| CATCGATC | -0.0988 |
| GATGGGAA | -0.204 |
| CCTGAAGG | -0.351 |
| GCACAAAC | -0.0612 |
| CCCCAACA | -0.141 |
| AGGTTAAG | -0.142 |
| CGCCCCGA | 7e-05 |
| AGTGCCGC | -0.159 |
| CCAGTCGC | -0.123 |
| ACCTACGA | 0.00986 |
| CACTGATA | -0.0756 |
| CCTCAGAA | -0.266 |
| CAGGCCTA | -0.108 |
| CGTAAGGA | -0.162 |
| AGTTCCAG | -0.0562 |
| GTGACGTA | -0.0724 |
| AGAGTTCG | 0.162 |
| CCTCTCCC | -0.32 |
| ATCGATGA | 0.026 |
| ATCTCCAG | -0.0734 |
| CGTATGAG | -0.00806 |
| ATCTGTGA | 0.022 |
| AAAGCACC | -0.116 |

| Sequence | PBM E-score |
| --- | --- |
| AAAATCTG | 0.141 |
| TAGTAGCA | -0.0134 |
| CGCTTCCC | -0.302 |
| CCGCGGCA | 0.15 |
| AGCTTGAG | -0.133 |
| CAACCATG | -0.0632 |
| GTGGCTCA | -0.303 |
| TAATGCTA | 0.176 |
| ACAGTCCA | 0.0821 |
| CAAGTCAA | -0.0854 |
| ACAAGAGG | 0.0752 |
| GGTTCCTA | 0.00116 |
| GATGGGCA | -0.0816 |
| AAACGCCA | 0.0327 |
| ATAGGACC | -0.187 |
| AATATGGT | 0.136 |
| AACGTCAA | 0.0659 |
| CTTGTGAA | 0.166 |
| AAGGTGCA | -0.0501 |
| CGTAGTCC | 0.0807 |
| AAGGAAAG | -0.0232 |
| CCCTTATA | 0.0264 |
| AACGGGGC | 0.00893 |
| CTCAAGTC | 0.00407 |
| GATTGATA | 0.158 |

| Sequence | PBM E-score |
| --- | --- |
| AGATTCGA | 0.135 |
| AAAGACCT | -0.175 |
| AGTAGCCA | -0.0389 |
| ATTTTCTC | 0.155 |
| CTGATAGA | 0.0448 |
| CATGCTGC | -0.276 |
| TTATTAAA | 0.273 |
| CTCATGCA | -0.0944 |
| GGCATGCC | 0.073 |
| GGTTCTAC | 0.019 |
| GTCGACTA | 0.165 |
| CTTGCTCC | 0.0671 |
| CTCTATCC | -0.0171 |
| GCTCAAAA | 0.166 |
| AATTCAAG | 0.141 |
| ACTTGGGA | 0.0387 |
| ATAAGATG | 0.112 |
| CATATGTC | -0.0849 |
| ATACCACC | -0.077 |
| CATGCTAG | -0.118 |
| TGCAACAA | 0.0343 |
| GGCTCACC | -0.291 |
| GTATTAGA | 0.155 |
| GCGGAGCC | 0.113 |
| CGGTGGTC | 0.095 |

| Sequence | PBM E-score |
| --- | --- |
| AGCCAGGA | -0.265 |
| ACATTCAT | 0.214 |
| CACTCTAC | -0.0207 |
| ACCAGCAG | -0.384 |
| TCAAACCA | 0.162 |
| ATCGGGCA | -0.195 |
| AAACGACC | 0.0665 |
| AAACCTCA | 0.11 |
| ATTGTGGC | 0.0109 |
| ACACAGGA | 0.0378 |
| GCATGAGC | -0.208 |
| CGTCCAGC | -0.17 |
| CCGTAGTC | 0.0599 |
| GAGGACGC | -0.145 |
| GAGCTGGC | -0.219 |
| GAATGAGC | -0.0518 |
| TGTCGCAA | 0.0597 |
| AACCCTAG | -0.0936 |
| CACGGACC | 0.184 |
| GTCCGATA | 0.362 |
| AAAACAGC | 0.249 |
| ACGGAGTC | 0.46 |
